Assay results reported in PubChem BioAssay (NCI).
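In this assay, cells in 96-well plates receive the compound at five concentrations for 48 hours. Endpoints are linearly interpolated between the surrounding concentrations. GI50: concentration for 50% inhibition of growth. TGI denotes the concentration required for complete inhibition of growth.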

Tested on: NCI-H322M lung
Experiment: DTP human tumour cell line panel, 48 h

SMILES | GI50 [µM] | TGI [µM]
Nc1nc(-c2cccc([N+](=O)[O-])c2)c(N=Nc2cccc([N+](=O)[O-])c2)s1 | > 100 | > 100
COc1ccc2[nH]cc(-c3csc4nc(-c5ccccc5)cn34)c2c1 | 0.652 | > 100
